The data scatter; read single values as rough.
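Note: [psi-pin-] Saccharomyces cerevisiae expressing SupN fusions, induced by 100 µM Cu2SO4, selected 7 d at 30 °C without adenine and uracil, scored by deep sequencing of output versus input.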

The nature of the first data set: amyloid nucleation score relative to library mode (yeast Sup35 reporter selection) (log enrichment difference); higher = more amyloid nucleation; sequences are the first 22 residues of the Bri2 peptide extended by up to 12 random residues. Conditions: random library (experiment): 1;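 active = nucleation score significantly above 0 at FDR 0.05; inactive = not significantly above 0 or absent from output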.
Turning to EASNCFAIRHFENKFAVETLICVAPGGSGCRPAW, the amyloid nucleation score entry was “inactive”.

Regarding EASNCFAIRHFENKFAVETLICVAPVHTSCSSMV, the amyloid nucleation score entry is “inactive”. Turning to EASNCFAIRHFENKFAVETLICVAQLKEAWSHKH, the amyloid nucleation score was 2.99. As to EASNCFAIRHFENKFAVETLICVARAVQGPNTWG, the amyloid nucleation score result is “inactive”.

With EASNCFAIRHFENKFAVETLICVARNAPTVRRVR, the amyloid nucleation score entry was “inactive”. On the same count and under the same terms, to EASNCFAIRHFENKFAVETLICVARQKAVNGRTN belongs “inactive”. As to EASNCFAIRHFENKFAVETLICVARRAE, the amyloid nucleation score entry is “inactive”. The same measure, in the same setting: next, EASNCFAIRHFENKFAVETLICVARSRGEKPLGC: “inactive”; EASNCFAIRHFENKFAVETLICVASMEWLNWLVL: “inactive”; EASNCFAIRHFENKFAVETLICVASPPLYWVEMD: “inactive”. Take EASNCFAIRHFENKFAVETLICVASRSLRGFMCR: the amyloid nucleation score entry was “inactive”. For the sequence EASNCFAIRHFENKFAVETLICVASSACGLMCP, the amyloid nucleation score result is “inactive”. Take EASNCFAIRHFENKFAVETLICVASTHGWMYMRC: the amyloid nucleation score result is “inactive”. Take EASNCFAIRHFENKFAVETLICVASTSSTLNSVS: the amyloid nucleation score result is “inactive”. EASNCFAIRHFENKFAVETLICVATFAVSVVYAG: the amyloid nucleation score entry is “inactive”. As for EASNCFAIRHFENKFAVETLICVATFICC, the amyloid nucleation score entry was “inactive”. In the case of EASNCFAIRHFENKFAVETLICVAV, the amyloid nucleation score entry is “inactive”. Take EASNCFAIRHFENKFAVETLICVAVPKSSGQTAL: the amyloid nucleation score result was “inactive”. Consider EASNCFAIRHFENKFAVETLICVAVPRHGPDVAG, for which the amyloid nucleation score entry was “inactive”. In the case of EASNCFAIRHFENKFAVETLICVAVPSWGVGRPV, the amyloid nucleation score entry was “inactive”. On to EASNCFAIRHFENKFAVETLICVAVVSALPEGT, for which the amyloid nucleation score is 0.903. Still for that read-out and setting: to EASNCFAIRHFENKFAVETLICVAYVWRSAGLGT belongs 0.04. Still for that read-out and setting: next, EASNCFAIRHFENKFAVETLICVC: “inactive”; EASNCFAIRHFENKFAVETLICVCALECVRKWCL: “inactive”. Consider EASNCFAIRHFENKFAVETLICVCAYLRLFHAGC, for which the amyloid nucleation score result was “inactive”. With EASNCFAIRHFENKFAVETLICVCEEPSVDLCFG, the amyloid nucleation score result is “inactive”. On the same count and under the same terms, to EASNCFAIRHFENKFAVETLICVCELGGPDFPLR belongs “inactive”; to EASNCFAIRHFENKFAVETLICVCFNGSSTHYPT, 8.87; to EASNCFAIRHFENKFAVETLICVCFS, 7.71. As for EASNCFAIRHFENKFAVETLICVCGAPEGTAASC, the amyloid nucleation score result is “inactive”.

On to EASNCFAIRHFENKFAVETLICVCGCMESARVP, for which the amyloid nucleation score stood at 5.57.

As to EASNCFAIRHFENKFAVETLICVCGGTSTSFIGR, the amyloid nucleation score is 8.08.

Take EASNCFAIRHFENKFAVETLICVCGRTSCSDSLL: the amyloid nucleation score entry was “inactive”.

EASNCFAIRHFENKFAVETLICVCGVRVSVSELR: the amyloid nucleation score entry was “inactive”. For the sequence EASNCFAIRHFENKFAVETLICVCHSVRMASAPR, the amyloid nucleation score came out at 2.7. In the case of EASNCFAIRHFENKFAVETLICVCILRC, the amyloid nucleation score stood at 4.15. For the sequence EASNCFAIRHFENKFAVETLICVCIVPHTSSVKR, the amyloid nucleation score amounted to 4.52. For EASNCFAIRHFENKFAVETLICVCKECSTVSPG, the amyloid nucleation score result is “inactive”. Still for that read-out and setting: next, EASNCFAIRHFENKFAVETLICVCKGPRPYSC: 3.46; EASNCFAIRHFENKFAVETLICVCLDGR: 7.76. In the case of EASNCFAIRHFENKFAVETLICVCLVWGR, the amyloid nucleation score result was “inactive”. EASNCFAIRHFENKFAVETLICVCLWNVIGTTSR displayed an amyloid nucleation score of 5.3. Still for that read-out and setting: next, EASNCFAIRHFENKFAVETLICVCMI: 4.68; EASNCFAIRHFENKFAVETLICVCMVIFYRDMYY: “inactive”; EASNCFAIRHFENKFAVETLICVCQGV: 2.4. For the sequence EASNCFAIRHFENKFAVETLICVCQWPIFMFWVY, the amyloid nucleation score entry was “inactive”. Take EASNCFAIRHFENKFAVETLICVCRAALMLEVGP: the amyloid nucleation score result is “inactive”. Sequence EASNCFAIRHFENKFAVETLICVCRESSLRTGHE displayed an amyloid nucleation score of 4.07. In the case of EASNCFAIRHFENKFAVETLICVCRKSIGFSLWR, the amyloid nucleation score result is “inactive”.

Take EASNCFAIRHFENKFAVETLICVCRYTFMSLLLA: the amyloid nucleation score entry was “inactive”.

Staying with this data set, now noted: random library (experiment): 2.
The sequence EASNCFAIRHFENKFAVETLICVARRKMRRLIHI registered an amyloid nucleation score of 0.393. Regarding EASNCFAIRHFENKFAVETLICVATYIVSMLYMR, the amyloid nucleation score entry was “inactive”.

Consider EASNCFAIRHFENKFAVETLICVAWG, for which the amyloid nucleation score entry was “inactive”. As to EASNCFAIRHFENKFAVETLICVAWQSWEMRAVS, the amyloid nucleation score worked out at 3.22. As for EASNCFAIRHFENKFAVETLICVAYCCIKARSVT, the amyloid nucleation score was 3.78.

EASNCFAIRHFENKFAVETLICVCCHGIYWYDCG yielded an amyloid nucleation score of 4.65. Sequence EASNCFAIRHFENKFAVETLICVCCIYFFVYGFR showed an amyloid nucleation score of 6.41. The sequence EASNCFAIRHFENKFAVETLICVCCKAERTVNRE gave an amyloid nucleation score of 6.13.

As to EASNCFAIRHFENKFAVETLICVCDCPLNRCKKN, the amyloid nucleation score worked out at 8.25. On the same count and under the same terms, next, EASNCFAIRHFENKFAVETLICVCDCRYCCTLLL: 1.26; EASNCFAIRHFENKFAVETLICVCDKYNYSTLWI: “inactive”; EASNCFAIRHFENKFAVETLICVCDNKPSTQCAI: 4.93. As for EASNCFAIRHFENKFAVETLICVCFRLFERWSRK, the amyloid nucleation score entry was “inactive”.

For the sequence EASNCFAIRHFENKFAVETLICVCHSLMD, the amyloid nucleation score amounted to 6.06. On the same count and under the same terms, next, EASNCFAIRHFENKFAVETLICVCIVCSPTSLL: 0.813.

The sequence EASNCFAIRHFENKFAVETLICVCIYRNSKRWDM had an amyloid nucleation score of 2.71. Sequence EASNCFAIRHFENKFAVETLICVCKVSIT returned an amyloid nucleation score of 4.03. Consider EASNCFAIRHFENKFAVETLICVCLRSSSMVCWC, for which the amyloid nucleation score result was “inactive”.

The sequence EASNCFAIRHFENKFAVETLICVCLRWVSVASST yielded an amyloid nucleation score of 0.777.

Consider EASNCFAIRHFENKFAVETLICVCMVSIRWGFLL, for which the amyloid nucleation score entry was “inactive”. On to EASNCFAIRHFENKFAVETLICVCRFVVVTMHLL, for which the amyloid nucleation score entry is “inactive”. On to EASNCFAIRHFENKFAVETLICVCRNLFLELSTA, for which the amyloid nucleation score entry is “inactive”.

EASNCFAIRHFENKFAVETLICVCRSTW gave an amyloid nucleation score of -0.732. Take EASNCFAIRHFENKFAVETLICVCRTL: the amyloid nucleation score entry was “inactive”. As for EASNCFAIRHFENKFAVETLICVCSGLGSNEVRE, the amyloid nucleation score turned out to be 8.46.

The same data set, now with this note: random library (experiment): 3.
For EASNCFAIRHFENKFAVETLICVAPRDAFWSVLE, the amyloid nucleation score result was “inactive”.

In the case of EASNCFAIRHFENKFAVETLICVAPVY, the amyloid nucleation score entry was “inactive”.

In the case of EASNCFAIRHFENKFAVETLICVAQCGGFMGLVC, the amyloid nucleation score result is “inactive”. Consider EASNCFAIRHFENKFAVETLICVARDRGSPLALW, for which the amyloid nucleation score result was “inactive”. As to EASNCFAIRHFENKFAVETLICVARMEHRLGFWR, the amyloid nucleation score result is “inactive”. EASNCFAIRHFENKFAVETLICVARSMMRYPRFS: the amyloid nucleation score result was “inactive”. With EASNCFAIRHFENKFAVETLICVASCH, the amyloid nucleation score result was “inactive”.

On to EASNCFAIRHFENKFAVETLICVASRSPD, for which the amyloid nucleation score entry was “inactive”. EASNCFAIRHFENKFAVETLICVATYCVDQLTVA: the amyloid nucleation score entry is “inactive”. Regarding EASNCFAIRHFENKFAVETLICVAVC, the amyloid nucleation score result was “inactive”.

Take EASNCFAIRHFENKFAVETLICVAVERSSVSGLE: the amyloid nucleation score entry is “inactive”. Regarding EASNCFAIRHFENKFAVETLICVAVGCSCRLKRM, the amyloid nucleation score entry is “inactive”. On the same count and under the same terms, next, EASNCFAIRHFENKFAVETLICVAVQSSQMGSFV: “inactive”.

On to EASNCFAIRHFENKFAVETLICVAVSFRGSWDVS, for which the amyloid nucleation score result was “inactive”.

For EASNCFAIRHFENKFAVETLICVCCRNRMYRRVQ, the amyloid nucleation score stood at 4.36. Turning to EASNCFAIRHFENKFAVETLICVCCVMSTEEGLV, the amyloid nucleation score is 8.93. In turn, EASNCFAIRHFENKFAVETLICVCFIQA showed an amyloid nucleation score of 1.28. For the sequence EASNCFAIRHFENKFAVETLICVCGSSLVPRDRG, the amyloid nucleation score amounted to 7.72.

In the case of EASNCFAIRHFENKFAVETLICVCKDSIRVVGWI, the amyloid nucleation score entry was “inactive”. Still for that read-out and setting: to EASNCFAIRHFENKFAVETLICVCLCAMMSGSGM belongs 6.04; to EASNCFAIRHFENKFAVETLICVCLFLR, 6.54; to EASNCFAIRHFENKFAVETLICVCLMFLLRVSYR, “inactive”. The sequence EASNCFAIRHFENKFAVETLICVCMRTDSSRGRC showed an amyloid nucleation score of 6.79. In turn, EASNCFAIRHFENKFAVETLICVCPERVVLHPIG showed an amyloid nucleation score of 5.09. In turn, EASNCFAIRHFENKFAVETLICVCPFLGHLCILE showed an amyloid nucleation score of 1.52. For EASNCFAIRHFENKFAVETLICVCQLSFVMVACA, the amyloid nucleation score entry was “inactive”. EASNCFAIRHFENKFAVETLICVCRSTVYAERPV displayed an amyloid nucleation score of 2.17. As for EASNCFAIRHFENKFAVETLICVCRYCITASWVV, the amyloid nucleation score entry was “inactive”.

(Values after the supplement of paper PMC12067230.)
